Experimental data taken from publication PMC3379983.
No constants are given. Whether binding was seen depends on the method and setting. For part of these data: In cells and extracts the contact can be indirect. Some results given as binding are weak or reduced against the parent protein; the word gives no strength. For part of these data: Sequences can lack the tags named with a protein. One block for each molecule: values may come before it.

Protein sequences, listed by entry. Tags and fused reporters are not part of them. Lines headed by an entry give the natural chain unless they say otherwise; changes in a name come on top. Residues count along the entry.
UniProt Q62940: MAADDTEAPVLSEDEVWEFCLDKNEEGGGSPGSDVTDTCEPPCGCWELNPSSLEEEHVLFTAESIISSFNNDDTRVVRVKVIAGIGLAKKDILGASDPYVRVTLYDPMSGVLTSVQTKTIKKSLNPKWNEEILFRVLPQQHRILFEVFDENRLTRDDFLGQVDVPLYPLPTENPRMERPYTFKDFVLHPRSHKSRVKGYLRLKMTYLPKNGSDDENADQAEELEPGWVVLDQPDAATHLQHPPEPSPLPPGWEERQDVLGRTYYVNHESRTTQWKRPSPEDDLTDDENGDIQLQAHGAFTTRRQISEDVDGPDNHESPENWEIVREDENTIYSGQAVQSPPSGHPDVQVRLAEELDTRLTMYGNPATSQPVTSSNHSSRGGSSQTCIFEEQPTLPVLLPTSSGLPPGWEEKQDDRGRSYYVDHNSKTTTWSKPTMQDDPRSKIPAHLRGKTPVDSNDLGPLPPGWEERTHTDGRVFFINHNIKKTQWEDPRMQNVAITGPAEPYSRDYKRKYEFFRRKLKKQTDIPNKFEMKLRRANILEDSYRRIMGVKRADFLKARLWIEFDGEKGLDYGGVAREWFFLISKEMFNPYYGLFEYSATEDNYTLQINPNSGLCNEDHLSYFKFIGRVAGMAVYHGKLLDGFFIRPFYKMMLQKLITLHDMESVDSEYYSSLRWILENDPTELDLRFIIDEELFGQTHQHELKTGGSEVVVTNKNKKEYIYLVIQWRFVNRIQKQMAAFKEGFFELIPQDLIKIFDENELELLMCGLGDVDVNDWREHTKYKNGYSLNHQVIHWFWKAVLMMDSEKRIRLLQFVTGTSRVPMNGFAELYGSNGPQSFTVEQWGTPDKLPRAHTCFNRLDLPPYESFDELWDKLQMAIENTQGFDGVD
UniProt P46935: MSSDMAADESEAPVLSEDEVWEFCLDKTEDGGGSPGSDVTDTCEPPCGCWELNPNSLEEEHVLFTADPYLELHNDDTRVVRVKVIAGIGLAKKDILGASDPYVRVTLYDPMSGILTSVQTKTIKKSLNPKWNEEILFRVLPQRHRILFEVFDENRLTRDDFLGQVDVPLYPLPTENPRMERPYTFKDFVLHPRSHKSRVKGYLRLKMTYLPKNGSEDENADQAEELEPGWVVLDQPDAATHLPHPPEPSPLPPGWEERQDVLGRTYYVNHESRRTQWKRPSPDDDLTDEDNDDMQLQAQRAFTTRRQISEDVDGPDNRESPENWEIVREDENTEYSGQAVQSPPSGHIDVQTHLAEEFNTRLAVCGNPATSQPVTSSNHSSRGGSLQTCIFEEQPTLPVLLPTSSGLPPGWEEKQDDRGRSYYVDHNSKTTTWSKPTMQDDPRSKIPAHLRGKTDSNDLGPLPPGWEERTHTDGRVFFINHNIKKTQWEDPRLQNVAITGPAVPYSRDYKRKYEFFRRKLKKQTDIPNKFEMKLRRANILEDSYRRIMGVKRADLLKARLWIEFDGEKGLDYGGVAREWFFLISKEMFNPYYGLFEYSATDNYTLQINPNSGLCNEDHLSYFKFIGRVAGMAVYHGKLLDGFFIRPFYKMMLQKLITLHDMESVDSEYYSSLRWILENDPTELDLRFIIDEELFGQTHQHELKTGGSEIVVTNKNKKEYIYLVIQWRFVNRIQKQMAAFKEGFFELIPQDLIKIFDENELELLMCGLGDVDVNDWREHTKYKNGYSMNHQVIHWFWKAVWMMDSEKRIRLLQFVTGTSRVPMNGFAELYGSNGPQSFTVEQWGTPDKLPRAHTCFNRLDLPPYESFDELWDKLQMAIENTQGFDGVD
GST-Nedd4 fusion protein (Nedd4 aa 34-887): residues 34-887 of P46935

Legend:
[1] = target: T1, GAL4BD fused to mouse MAK-V protein (aa 26-714; pPC97-MAK-V) (mouse) (UniProt O88866); assay: two-hybrid; yeast, GAL4BD and GAL4AD chimeras, HIS3 reporter, growth on minimal medium with 60 mM 3AT
T1 sequence: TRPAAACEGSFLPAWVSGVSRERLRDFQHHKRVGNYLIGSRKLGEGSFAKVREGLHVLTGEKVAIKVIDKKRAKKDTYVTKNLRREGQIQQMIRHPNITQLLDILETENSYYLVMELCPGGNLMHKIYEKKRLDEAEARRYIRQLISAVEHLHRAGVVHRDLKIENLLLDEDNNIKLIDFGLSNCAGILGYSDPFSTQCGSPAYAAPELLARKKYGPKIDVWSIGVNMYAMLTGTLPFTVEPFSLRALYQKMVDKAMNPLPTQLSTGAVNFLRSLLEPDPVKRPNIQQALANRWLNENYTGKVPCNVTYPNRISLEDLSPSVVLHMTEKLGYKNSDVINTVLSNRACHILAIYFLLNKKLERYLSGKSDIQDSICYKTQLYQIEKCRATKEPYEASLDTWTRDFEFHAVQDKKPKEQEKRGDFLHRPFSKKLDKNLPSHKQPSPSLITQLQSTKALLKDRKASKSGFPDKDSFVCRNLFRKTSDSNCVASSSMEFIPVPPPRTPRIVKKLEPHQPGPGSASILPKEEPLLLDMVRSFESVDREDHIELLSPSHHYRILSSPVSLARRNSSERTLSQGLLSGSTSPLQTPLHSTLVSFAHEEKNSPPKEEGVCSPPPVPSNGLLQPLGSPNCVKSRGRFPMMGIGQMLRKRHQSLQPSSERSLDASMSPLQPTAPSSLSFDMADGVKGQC

[2] = target: T2, endogenous MAK-V protein (CSML-0 cells) (mouse (endogenous in CSML-0)) (UniProt O88866); assay: co-IP; CSML-0 lysate, endogenous proteins, anti-Nedd4 or anti-MAK-V antibodies overnight at 4°C, Protein G Sepharose; control with antibodies omitted
T2 sequence: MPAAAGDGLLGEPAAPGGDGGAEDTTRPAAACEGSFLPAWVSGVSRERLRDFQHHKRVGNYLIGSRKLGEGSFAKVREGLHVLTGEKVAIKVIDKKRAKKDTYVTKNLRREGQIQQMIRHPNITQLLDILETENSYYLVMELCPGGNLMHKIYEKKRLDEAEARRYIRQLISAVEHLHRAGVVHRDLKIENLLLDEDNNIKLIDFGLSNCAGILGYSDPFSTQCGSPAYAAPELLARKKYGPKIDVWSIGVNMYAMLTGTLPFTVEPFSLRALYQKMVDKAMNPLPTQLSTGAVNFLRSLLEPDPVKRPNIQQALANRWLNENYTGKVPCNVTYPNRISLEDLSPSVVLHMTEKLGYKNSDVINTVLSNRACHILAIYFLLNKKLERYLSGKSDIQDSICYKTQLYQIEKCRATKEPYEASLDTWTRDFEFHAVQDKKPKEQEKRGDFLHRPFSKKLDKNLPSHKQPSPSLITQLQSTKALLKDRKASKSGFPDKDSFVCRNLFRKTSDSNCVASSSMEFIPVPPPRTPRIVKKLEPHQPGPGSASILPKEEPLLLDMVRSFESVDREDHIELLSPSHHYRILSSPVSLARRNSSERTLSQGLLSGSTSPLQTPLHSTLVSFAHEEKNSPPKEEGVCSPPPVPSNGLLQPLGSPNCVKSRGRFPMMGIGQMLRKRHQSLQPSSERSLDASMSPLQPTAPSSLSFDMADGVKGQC

[3] = target: T3, GAL4BD fused to the C-terminal portion of mouse MAK-V (aa 395-714; pPC97-C-MAK-V) (mouse) (UniProt O88866); assay: two-hybrid; yeast, GAL4BD and GAL4AD chimeras, HIS3 reporter, growth on minimal medium with 60 mM 3AT
T3 sequence: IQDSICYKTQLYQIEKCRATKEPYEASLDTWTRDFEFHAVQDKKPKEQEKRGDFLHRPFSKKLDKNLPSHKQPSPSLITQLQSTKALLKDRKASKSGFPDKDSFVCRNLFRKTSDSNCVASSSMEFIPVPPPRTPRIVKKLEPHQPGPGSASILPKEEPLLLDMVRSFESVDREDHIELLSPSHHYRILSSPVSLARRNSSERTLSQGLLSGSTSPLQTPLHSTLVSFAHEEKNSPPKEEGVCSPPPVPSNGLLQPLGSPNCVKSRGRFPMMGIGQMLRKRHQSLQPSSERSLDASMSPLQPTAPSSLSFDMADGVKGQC

[4] = target: T4, GAL4BD fused to the N-terminal part of mouse MAK-V (aa 26-394; pPC97-N-MAK-V) (mouse) (UniProt O88866); assay: as above
T4 sequence: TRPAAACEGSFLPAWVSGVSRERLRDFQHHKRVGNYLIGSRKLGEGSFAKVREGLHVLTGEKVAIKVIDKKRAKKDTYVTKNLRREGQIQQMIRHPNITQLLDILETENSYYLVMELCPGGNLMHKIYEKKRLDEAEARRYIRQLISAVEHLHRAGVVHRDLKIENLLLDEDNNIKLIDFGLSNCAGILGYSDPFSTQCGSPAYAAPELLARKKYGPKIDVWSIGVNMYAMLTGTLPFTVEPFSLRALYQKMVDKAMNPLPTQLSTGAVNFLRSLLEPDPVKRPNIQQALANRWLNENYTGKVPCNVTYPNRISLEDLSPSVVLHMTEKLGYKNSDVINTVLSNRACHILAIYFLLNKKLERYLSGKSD

[5] = target: T5, MAK-V-FLAG protein (C-terminally FLAG-tagged mouse MAK-V protein kinase) (mouse) (UniProt O88866); assay: co-IP; anti-FLAG M2 affinity gel precipitates from PC12TetOn lysates (induced and non-induced), blotted with anti-Nedd4 antibodies
T5 sequence: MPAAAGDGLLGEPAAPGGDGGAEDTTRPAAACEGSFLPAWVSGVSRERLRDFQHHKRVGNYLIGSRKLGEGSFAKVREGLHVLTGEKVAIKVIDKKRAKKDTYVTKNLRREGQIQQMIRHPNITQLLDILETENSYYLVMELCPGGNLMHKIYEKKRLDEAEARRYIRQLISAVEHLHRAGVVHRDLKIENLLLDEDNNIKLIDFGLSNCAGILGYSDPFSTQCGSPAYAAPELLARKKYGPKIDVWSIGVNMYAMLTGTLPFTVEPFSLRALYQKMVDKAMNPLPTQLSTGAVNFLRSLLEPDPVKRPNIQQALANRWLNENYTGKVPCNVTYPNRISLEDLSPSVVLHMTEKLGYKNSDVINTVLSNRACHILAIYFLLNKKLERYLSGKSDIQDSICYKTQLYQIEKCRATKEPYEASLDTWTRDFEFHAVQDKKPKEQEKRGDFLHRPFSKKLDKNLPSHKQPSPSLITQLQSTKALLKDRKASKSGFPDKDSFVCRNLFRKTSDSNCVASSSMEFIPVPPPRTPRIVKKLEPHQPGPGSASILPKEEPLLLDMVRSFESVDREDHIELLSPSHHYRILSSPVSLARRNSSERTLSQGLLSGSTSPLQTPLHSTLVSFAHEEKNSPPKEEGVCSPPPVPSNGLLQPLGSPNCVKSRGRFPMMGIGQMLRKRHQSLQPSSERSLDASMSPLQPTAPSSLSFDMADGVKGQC

[6] = target: rat E3 ubiquitin ligase Nedd4 (endogenous in PC12TetOn cells) (rat) (UniProt Q62940); assay: co-IP; lysate of doxycycline-treated PC12TetOn cells on Protein G Sepharose with immobilized anti-Nedd4 antibodies or without antibodies, blotted with anti-FLAG antibodies
[7] = target: GST-Nedd4 fusion protein (Nedd4 aa 34-887) (mouse) (UniProt P46935); assay: pull-down; GST or GST-Nedd4 (30 µg) immobilised on glutathione Sepharose, incubated 2 hrs at 4°C with 50 µl of MAK-V-FLAG expressing cell lysate; anti-FLAG blot; only the target purified
[8] = target: endogenous Nedd4 protein (CSML-0 cells) (mouse (endogenous in CSML-0)) (UniProt P46935); assay: co-IP; CSML-0 lysate, endogenous proteins, anti-Nedd4 or anti-MAK-V antibodies overnight at 4°C, Protein G Sepharose; control with antibodies omitted

binding [3]: no binding
binding [4]: binds
Molecule: GAL4AD fused to Nedd4 aa 34-493 containing C2 and all three WW domains (pPC86-C2-WW1-3) (from UniProt P46935 34-493) (domain or fragment)

binding [5]: binds
Molecule: rat E3 ubiquitin ligase Nedd4 (endogenous in PC12TetOn cells) (from UniProt Q62940 1-887) (enzyme)

The next lines start with the molecule.

Molecule: GAL4AD fused to Nedd4 aa 34-295 containing C2 and WW1 domains (pPC86-C2-WW1) (from UniProt P46935 34-295) (domain or fragment)
binding [1]: binds

Molecule: endogenous Nedd4 protein (CSML-0 cells) (from UniProt P46935 1-887) (enzyme)
binding [2]: binds

Molecule: GAL4AD fused to Nedd4 aa 220-493 containing only three WW domains (pPC86-WW1-3) (from UniProt P46935 220-493) (domain or fragment)
binding [1]: no binding

B1: MAK-V-FLAG protein (C-terminally FLAG-tagged mouse MAK-V protein kinase) (enzyme, UniProt O88866 1-714)
chain: MPAAAGDGLLGEPAAPGGDGGAEDTTRPAAACEGSFLPAWVSGVSRERLRDFQHHKRVGNYLIGSRKLGEGSFAKVREGLHVLTGEKVAIKVIDKKRAKKDTYVTKNLRREGQIQQMIRHPNITQLLDILETENSYYLVMELCPGGNLMHKIYEKKRLDEAEARRYIRQLISAVEHLHRAGVVHRDLKIENLLLDEDNNIKLIDFGLSNCAGILGYSDPFSTQCGSPAYAAPELLARKKYGPKIDVWSIGVNMYAMLTGTLPFTVEPFSLRALYQKMVDKAMNPLPTQLSTGAVNFLRSLLEPDPVKRPNIQQALANRWLNENYTGKVPCNVTYPNRISLEDLSPSVVLHMTEKLGYKNSDVINTVLSNRACHILAIYFLLNKKLERYLSGKSDIQDSICYKTQLYQIEKCRATKEPYEASLDTWTRDFEFHAVQDKKPKEQEKRGDFLHRPFSKKLDKNLPSHKQPSPSLITQLQSTKALLKDRKASKSGFPDKDSFVCRNLFRKTSDSNCVASSSMEFIPVPPPRTPRIVKKLEPHQPGPGSASILPKEEPLLLDMVRSFESVDREDHIELLSPSHHYRILSSPVSLARRNSSERTLSQGLLSGSTSPLQTPLHSTLVSFAHEEKNSPPKEEGVCSPPPVPSNGLLQPLGSPNCVKSRGRFPMMGIGQMLRKRHQSLQPSSERSLDASMSPLQPTAPSSLSFDMADGVKGQC
binding [6]: binds
binding [7]: binds

B2: endogenous MAK-V protein (CSML-0 cells) (enzyme, UniProt O88866 1-714)
chain: MPAAAGDGLLGEPAAPGGDGGAEDTTRPAAACEGSFLPAWVSGVSRERLRDFQHHKRVGNYLIGSRKLGEGSFAKVREGLHVLTGEKVAIKVIDKKRAKKDTYVTKNLRREGQIQQMIRHPNITQLLDILETENSYYLVMELCPGGNLMHKIYEKKRLDEAEARRYIRQLISAVEHLHRAGVVHRDLKIENLLLDEDNNIKLIDFGLSNCAGILGYSDPFSTQCGSPAYAAPELLARKKYGPKIDVWSIGVNMYAMLTGTLPFTVEPFSLRALYQKMVDKAMNPLPTQLSTGAVNFLRSLLEPDPVKRPNIQQALANRWLNENYTGKVPCNVTYPNRISLEDLSPSVVLHMTEKLGYKNSDVINTVLSNRACHILAIYFLLNKKLERYLSGKSDIQDSICYKTQLYQIEKCRATKEPYEASLDTWTRDFEFHAVQDKKPKEQEKRGDFLHRPFSKKLDKNLPSHKQPSPSLITQLQSTKALLKDRKASKSGFPDKDSFVCRNLFRKTSDSNCVASSSMEFIPVPPPRTPRIVKKLEPHQPGPGSASILPKEEPLLLDMVRSFESVDREDHIELLSPSHHYRILSSPVSLARRNSSERTLSQGLLSGSTSPLQTPLHSTLVSFAHEEKNSPPKEEGVCSPPPVPSNGLLQPLGSPNCVKSRGRFPMMGIGQMLRKRHQSLQPSSERSLDASMSPLQPTAPSSLSFDMADGVKGQC
binding [8]: binds
